# In patent publication US20240124575A1 (SIMCERE ZAIMING PHARMACEUTICAL, published 2024):
# Where two headings read alike, the source gives them in different places.
# B1: SGN-33 scFv-hIgG1Fc (Fc fusion)
# chain: QVQLVQSGAEVKKPGASVKVSCKASGYTFTNYDINWVRQAPGQGLEWIGWIYPGDGSTKYNEKFKAKATLTADTSTSTAYMELRSLRSDDTAVYYCASGYEDAMDYWGQGTTVTVSSGGGGSGGGGSGGGGSDIQMTQSPSSLSASVGDRVTINCKASQDINSYLSWFQQKPGKAPKTLIYRANRLVDGVPSRFSGSGSGQDYTLTISSLQPEDFATYYCLQYDEFPLTFGGGTKVEIK[letters of human IgG1 Fc with changes left out]
# notes: scFv-hFc format; also called CD33 antibody
# Assays:
# [1] = target: T1, human CD33 on U937 cells (endogenous) (human, UniProt P20138); test: FACS, U937 cells
# T1 construct: whole, on cells
# [2] = target: T2, human CD33 on CHO-K1 cells (CHO-K1-human CD33) (human, UniProt P20138); test: FACS on CHO-K1-human CD33 cells
# T2 construct: whole, on cells; stably transfected CHO-K1 clones; also called CHO-K1-hCD33-B8; CHO-K1-human CD33 B8
# [3] = target: T3, human CD33-His (extracellular domain Asp 18-His 259) (human, UniProt P20138 18-259); test: ELISA, antigen coated
# T3 construct: range 18-259; bought protein; also called hCD33-his; human CD33 protein; not shown: His tag
# human CD33-V-his [4] = target: T4, human CD33-V-his (human, UniProt P20138 18-144); test: ELISA on coated human CD33-V-his
# T4 construct: expressed in HEK293E; also called hCD33-V-his; human CD33 protein V-domain; not shown: His tag
# [5] = target: T3, human CD33-His (extracellular domain …); test: ELISA, antigen coated; remark: listed apart in the source
# human CD33-V-his [6] = target: T4, human CD33-V-his; test: ELISA on coated human CD33-V-his; remark: listed apart in the source
# [7] = target: T2, human CD33 on CHO-K1 cells …; test: FACS, CHO-K1-human CD33 cells
# [8] = target: T2, human CD33 on CHO-K1 cells …; test: FACS, CHO-K1-human CD33 cells; remark: listed apart in the source
# human CD33-V-his [9] = target: T4, human CD33-V-his; test: ELISA on coated human CD33-V-his; remark: listed apart in the source
# [10] = target: T1, human CD33 on U937 cells (endogenous); test: FACS, U937 cells; remark: listed apart in the source
# human CD33-V-his [11] = target: T4, human CD33-V-his; test: ELISA on coated human CD33-V-his; remark: listed apart in the source
# T1 sequence (P20138 18-364): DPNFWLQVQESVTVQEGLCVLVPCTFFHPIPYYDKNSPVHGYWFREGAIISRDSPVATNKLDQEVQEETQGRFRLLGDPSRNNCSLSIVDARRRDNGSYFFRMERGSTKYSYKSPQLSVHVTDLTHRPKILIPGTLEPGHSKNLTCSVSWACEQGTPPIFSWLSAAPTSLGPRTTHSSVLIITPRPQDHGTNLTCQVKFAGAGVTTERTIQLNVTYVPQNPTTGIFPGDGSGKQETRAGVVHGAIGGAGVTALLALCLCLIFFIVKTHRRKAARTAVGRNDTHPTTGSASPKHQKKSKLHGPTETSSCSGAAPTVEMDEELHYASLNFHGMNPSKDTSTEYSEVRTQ
# T4 sequence (P20138 other isoform, or with tags, fused parts or gaps limits assumed): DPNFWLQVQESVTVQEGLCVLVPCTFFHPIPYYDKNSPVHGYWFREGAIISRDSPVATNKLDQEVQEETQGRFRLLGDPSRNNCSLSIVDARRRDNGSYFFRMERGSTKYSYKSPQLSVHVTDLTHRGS
binder,measurement,setting,value
B1,EC50,[1],1.99 nM
same,Max MFI,[1],1390 MFI
same,EC50 (read off the curve),[2],~0.2 nM
same,OD450 at 0.0001 nM,[3],0.05 OD450
same,OD450 at 0.001 nM,[3],0.06 OD450
same,OD450 at 0.01 nM,[3],0.08 OD450
same,OD450 at 0.1 nM,[3],0.39 OD450
same,OD450 at 1 nM,[3],0.71 OD450
same,OD450 at 10 nM,[3],1.56 OD450
same,OD450 at 100 nM,[3],1.35 OD450
same,EC50 (read off the curve),human CD33-V-his [4],~0.2 nM
same,OD450 at 0.0001 nM,[5],0.04 OD450
same,OD450 at 0.001 nM,[5],0.06 OD450
same,OD450 at 0.01 nM,[5],0.26 OD450
same,OD450 at 0.1 nM,[5],0.74 OD450
same,OD450 at 1 nM,[5],1.48 OD450
same,OD450 at 10 nM,[5],1.56 OD450
same,OD450 at 100 nM,[5],1.3 OD450
same,EC50 (read off the curve),human CD33-V-his [6],~0.2 nM
same,EC50,[7],0.39 nM
same,Max MFI,[7],9920 MFI
same,EC50,[8],0.16 nM
same,Max MFI,[8],6920 MFI
same,EC50 (read off the curve),human CD33-V-his [9],~0.2 nM
same,EC50,[10],4.05 nM
same,Max MFI,[10],1170 MFI
same,EC50 (read off the curve),human CD33-V-his [11],~0.06 nM
